ChEMBL document CHEMBL1961873, “Compounds: GSK PKIS; Assays: Nanosyn kinase panel” (2012)
The entries are a selection whose mix differs from that of the whole data set.

What follows are compounds tested against Calcium/calmodulin-dependent protein kinase type 1D (Homo sapiens) (UniProt Q8IU85). Conditions: at 1 µM.
Chain of UniProt Q8IU85 (Q8IU85 whole entry, looked up): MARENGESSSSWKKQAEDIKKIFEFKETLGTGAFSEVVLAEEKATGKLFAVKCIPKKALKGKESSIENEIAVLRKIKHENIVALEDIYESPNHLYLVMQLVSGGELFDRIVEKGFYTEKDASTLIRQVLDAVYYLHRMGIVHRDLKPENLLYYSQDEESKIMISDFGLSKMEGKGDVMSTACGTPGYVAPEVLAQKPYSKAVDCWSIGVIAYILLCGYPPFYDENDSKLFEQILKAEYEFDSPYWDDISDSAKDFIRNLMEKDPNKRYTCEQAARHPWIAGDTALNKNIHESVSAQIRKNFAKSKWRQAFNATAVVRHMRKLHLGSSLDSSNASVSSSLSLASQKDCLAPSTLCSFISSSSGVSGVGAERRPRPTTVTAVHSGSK
In the case of O=C(O)c1ccc(Oc2nccc(-c3c(-c4ccc(F)cc4)ncn3C3CCNCC3)n2)cc1, the inhibition is reported as 1.37%. For CC(C)(C)c1ccc(Oc2nccc(-c3c(-c4ccc(F)cc4)ncn3C3CCNCC3)n2)cc1, the inhibition was 3.15%. Fc1ccc(Oc2nccc(-c3c(-c4ccc(F)cc4)ncn3C3CCNCC3)n2)cc1 showed an inhibition of 1.02%. Compound COc1ccccc1C1=C(Nc2ccccc2)C(=O)NC1=O has an inhibition of 1.96%. Fc1ccc(-c2ncn(C3CCNCC3)c2-c2ccnc(Oc3ccc(Cl)cc3)n2)cc1 gave an inhibition of 0.97%. NC(=O)CCc1ccccc1Oc1nccc(-c2c(-c3ccc(F)cc3)ncn2C2CCNCC2)n1 was tested, and the inhibition was 0.73%. Work on COc1ccccc1Oc1nccc(-c2c(-c3ccc(F)cc3)ncn2C2CCNCC2)n1 yielded an inhibition of 0.27%. Compound CS(=O)(=O)c1ccc(Oc2nccc(-c3c(-c4ccc(F)cc4)ncn3C3CCNCC3)n2)cc1 has an inhibition of 5.26%. Compound Cc1cccc(Oc2nccc(-c3c(-c4ccc(F)cc4)ncn3C3CCNCC3)n2)c1C has an inhibition of 0.05%. Fc1ccc(-c2ncn(C3CCNCC3)c2-c2ccnc(Oc3cccc(F)c3)n2)cc1 showed an inhibition of 2%. Fc1ccc(-c2ncn(C3CCNCC3)c2-c2ccnc(Oc3cccc(C(F)(F)F)c3)n2)cc1 showed an inhibition of 0.93%. With O=C1NC(=O)C(c2ccccc2Cl)=C1Nc1cc(Cl)c(O)c(Cl)c1 the inhibition was 0.14%. In the case of O=C1NC(=O)C(c2ccccc2)=C1Nc1ccccc1, the inhibition is reported as 3%. O=C1NC(=O)C(c2cccc([N+](=O)[O-])c2)=C1Nc1cc(Cl)c(O)c(Cl)c1 gave an inhibition of 0.37%.

These compounds were tested against Calcium/calmodulin-dependent protein kinase type II subunit alpha (Homo sapiens) (UniProt Q9UQM7). Conditions: at 0.1 µM.
Chain of UniProt Q9UQM7 (Q9UQM7 whole entry): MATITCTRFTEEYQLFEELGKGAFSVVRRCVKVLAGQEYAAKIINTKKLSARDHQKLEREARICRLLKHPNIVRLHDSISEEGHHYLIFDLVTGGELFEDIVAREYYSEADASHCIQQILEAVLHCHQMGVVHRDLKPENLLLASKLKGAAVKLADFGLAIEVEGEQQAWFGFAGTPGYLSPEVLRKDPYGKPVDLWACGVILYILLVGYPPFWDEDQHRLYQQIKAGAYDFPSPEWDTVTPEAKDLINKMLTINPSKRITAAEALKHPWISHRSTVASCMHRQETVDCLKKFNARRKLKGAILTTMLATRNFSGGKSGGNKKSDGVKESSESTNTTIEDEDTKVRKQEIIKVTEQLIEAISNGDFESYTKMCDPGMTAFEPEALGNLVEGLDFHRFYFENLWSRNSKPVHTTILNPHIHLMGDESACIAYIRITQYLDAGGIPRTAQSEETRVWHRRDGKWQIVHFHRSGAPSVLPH
For O=C(O)c1ccc(Oc2nccc(-c3c(-c4ccc(F)cc4)ncn3C3CCNCC3)n2)cc1, the inhibition was 2.85%. CC(C)(C)c1ccc(Oc2nccc(-c3c(-c4ccc(F)cc4)ncn3C3CCNCC3)n2)cc1 was tested, and the inhibition was 1.49%. In the case of Fc1ccc(Oc2nccc(-c3c(-c4ccc(F)cc4)ncn3C3CCNCC3)n2)cc1, the inhibition is reported as 1.76%. COc1ccccc1C1=C(Nc2ccccc2)C(=O)NC1=O was tested, and the inhibition was 2.73%. For Fc1ccc(-c2ncn(C3CCNCC3)c2-c2ccnc(Oc3ccc(Cl)cc3)n2)cc1, the inhibition was -2.22%. Compound NC(=O)CCc1ccccc1Oc1nccc(-c2c(-c3ccc(F)cc3)ncn2C2CCNCC2)n1 has an inhibition of -3.28%. With COc1ccccc1Oc1nccc(-c2c(-c3ccc(F)cc3)ncn2C2CCNCC2)n1 the inhibition was 2.09%. With CS(=O)(=O)c1ccc(Oc2nccc(-c3c(-c4ccc(F)cc4)ncn3C3CCNCC3)n2)cc1 the inhibition was 2.1%. With Cc1cccc(Oc2nccc(-c3c(-c4ccc(F)cc4)ncn3C3CCNCC3)n2)c1C the inhibition was 22.4%. Fc1ccc(-c2ncn(C3CCNCC3)c2-c2ccnc(Oc3cccc(F)c3)n2)cc1 gave an inhibition of 1.38%. Fc1ccc(-c2ncn(C3CCNCC3)c2-c2ccnc(Oc3cccc(C(F)(F)F)c3)n2)cc1 showed an inhibition of 4.85%. O=C1NC(=O)C(c2ccccc2Cl)=C1Nc1cc(Cl)c(O)c(Cl)c1 showed an inhibition of 2.22%. With O=C1NC(=O)C(c2ccccc2)=C1Nc1ccccc1 the inhibition was 3.13%. For O=C1NC(=O)C(c2cccc([N+](=O)[O-])c2)=C1Nc1cc(Cl)c(O)c(Cl)c1, the inhibition was 3.11%.

What follows are compounds tested against Calcium/calmodulin-dependent protein kinase type II subunit alpha (Homo sapiens) (UniProt Q9UQM7). Conditions: at 1 µM.
O=C(O)c1ccc(Oc2nccc(-c3c(-c4ccc(F)cc4)ncn3C3CCNCC3)n2)cc1 was tested, and the inhibition was 4.54%. In the case of CC(C)(C)c1ccc(Oc2nccc(-c3c(-c4ccc(F)cc4)ncn3C3CCNCC3)n2)cc1, the inhibition is reported as 5.11%. Work on Fc1ccc(Oc2nccc(-c3c(-c4ccc(F)cc4)ncn3C3CCNCC3)n2)cc1 yielded an inhibition of 4.77%. Work on COc1ccccc1C1=C(Nc2ccccc2)C(=O)NC1=O yielded an inhibition of 5.89%. Fc1ccc(-c2ncn(C3CCNCC3)c2-c2ccnc(Oc3ccc(Cl)cc3)n2)cc1 gave an inhibition of -1.84%. NC(=O)CCc1ccccc1Oc1nccc(-c2c(-c3ccc(F)cc3)ncn2C2CCNCC2)n1 showed an inhibition of -3.23%. With COc1ccccc1Oc1nccc(-c2c(-c3ccc(F)cc3)ncn2C2CCNCC2)n1 the inhibition was -0.4%. CS(=O)(=O)c1ccc(Oc2nccc(-c3c(-c4ccc(F)cc4)ncn3C3CCNCC3)n2)cc1 gave an inhibition of 0.65%. For Cc1cccc(Oc2nccc(-c3c(-c4ccc(F)cc4)ncn3C3CCNCC3)n2)c1C, the inhibition was -0.55%. Compound Fc1ccc(-c2ncn(C3CCNCC3)c2-c2ccnc(Oc3cccc(F)c3)n2)cc1 has an inhibition of 3%. Fc1ccc(-c2ncn(C3CCNCC3)c2-c2ccnc(Oc3cccc(C(F)(F)F)c3)n2)cc1 was tested, and the inhibition was 2.6%. Compound O=C1NC(=O)C(c2ccccc2Cl)=C1Nc1cc(Cl)c(O)c(Cl)c1 has an inhibition of 2.64%. O=C1NC(=O)C(c2ccccc2)=C1Nc1ccccc1 gave an inhibition of 4.51%. For O=C1NC(=O)C(c2cccc([N+](=O)[O-])c2)=C1Nc1cc(Cl)c(O)c(Cl)c1, the inhibition was -0.51%.

These compounds were tested against Calcium/calmodulin-dependent protein kinase type II subunit delta (Homo sapiens) (UniProt Q13557). Conditions: at 0.1 µM.
Chain of UniProt Q13557 (Q13557 whole entry): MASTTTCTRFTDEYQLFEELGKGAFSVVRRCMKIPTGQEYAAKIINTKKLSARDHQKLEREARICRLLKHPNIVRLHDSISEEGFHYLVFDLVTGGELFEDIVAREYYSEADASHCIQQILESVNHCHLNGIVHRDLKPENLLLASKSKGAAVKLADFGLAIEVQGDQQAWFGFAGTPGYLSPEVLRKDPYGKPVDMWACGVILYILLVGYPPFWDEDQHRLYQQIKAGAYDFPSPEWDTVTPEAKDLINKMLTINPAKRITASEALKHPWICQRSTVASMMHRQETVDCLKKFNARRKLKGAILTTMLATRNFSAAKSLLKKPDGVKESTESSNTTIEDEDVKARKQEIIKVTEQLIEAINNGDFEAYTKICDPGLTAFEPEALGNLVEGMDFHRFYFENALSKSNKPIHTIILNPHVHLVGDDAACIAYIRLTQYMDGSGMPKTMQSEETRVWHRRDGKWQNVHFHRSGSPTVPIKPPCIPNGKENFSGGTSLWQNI
Compound O=C(O)c1ccc(Oc2nccc(-c3c(-c4ccc(F)cc4)ncn3C3CCNCC3)n2)cc1 has an inhibition of 4.68%. CC(C)(C)c1ccc(Oc2nccc(-c3c(-c4ccc(F)cc4)ncn3C3CCNCC3)n2)cc1 showed an inhibition of 3.29%. Fc1ccc(Oc2nccc(-c3c(-c4ccc(F)cc4)ncn3C3CCNCC3)n2)cc1 was tested, and the inhibition was 2.82%. Compound COc1ccccc1C1=C(Nc2ccccc2)C(=O)NC1=O has an inhibition of 4.14%. Fc1ccc(-c2ncn(C3CCNCC3)c2-c2ccnc(Oc3ccc(Cl)cc3)n2)cc1 gave an inhibition of -0.64%. For NC(=O)CCc1ccccc1Oc1nccc(-c2c(-c3ccc(F)cc3)ncn2C2CCNCC2)n1, the inhibition was -2.69%. In the case of COc1ccccc1Oc1nccc(-c2c(-c3ccc(F)cc3)ncn2C2CCNCC2)n1, the inhibition is reported as 2.24%. CS(=O)(=O)c1ccc(Oc2nccc(-c3c(-c4ccc(F)cc4)ncn3C3CCNCC3)n2)cc1 was tested, and the inhibition was 2.72%. Compound Cc1cccc(Oc2nccc(-c3c(-c4ccc(F)cc4)ncn3C3CCNCC3)n2)c1C has an inhibition of 2.82%. With Fc1ccc(-c2ncn(C3CCNCC3)c2-c2ccnc(Oc3cccc(F)c3)n2)cc1 the inhibition was 3.18%. Fc1ccc(-c2ncn(C3CCNCC3)c2-c2ccnc(Oc3cccc(C(F)(F)F)c3)n2)cc1 showed an inhibition of 3.98%. Compound O=C1NC(=O)C(c2ccccc2Cl)=C1Nc1cc(Cl)c(O)c(Cl)c1 has an inhibition of 0.53%. O=C1NC(=O)C(c2ccccc2)=C1Nc1ccccc1 showed an inhibition of 3.71%. O=C1NC(=O)C(c2cccc([N+](=O)[O-])c2)=C1Nc1cc(Cl)c(O)c(Cl)c1 showed an inhibition of 2.31%.
